Data from the supplement of paper PMC8728848.
The list shows a part of the results.

Key:
Experiment in all cases: glycan array binding signal (z-score within array); higher = stronger binding
Conditions in all cases: glycan notation: IUPAC condensed, linker removed
[1] = target: Neu5Ac(a2-3)Gal(b1-3)GlcNAc(b1-6)GalNAc
In short: (§1)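 Glycan array binding is given as a within-array Z-score, which can be read as non-binding when negative. The arrays, 3228 of them, came from the Consortium for Functional Glycomics database and were retained only where the protein sequence was available. Z-scores were averaged across arrays of the same protein sequence at different concentrations or buffers and across linkers.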

[2] = target: Neu5Ac(a2-3)Gal(b1-3)GlcNAc6S
In short: as §1

[3] = target: Neu5Ac(a2-3)Gal(b1-3)[Fuc(a1-4)]GlcNAc
In short: as §1

[4] = target: Neu5Ac(a2-3)Gal(b1-3)[Fuc(a1-4)]GlcNAc(b1-3)Gal(b1-3)[Fuc(a1-4)]GlcNAc
In short: as §1

[5] = target: Neu5Ac(a2-3)Gal(b1-3)[Fuc(a1-4)]GlcNAc(b1-3)Gal(b1-4)[Fuc(a1-3)]GlcNAc
In short: as §1

[6] = target: Neu5Ac(a2-3)Gal(b1-3)[GlcNAc(b1-6)]GalNAc
In short: as §1

[7] = target: Neu5Ac(a2-3)Gal(b1-3)[Neu5Ac(a2-3)Gal(b1-4)]GlcNAc
In short: as §1

[8] = target: Neu5Ac(a2-3)Gal(b1-3)[Neu5Ac(a2-6)]GalNAc
In short: as §1

[9] = target: Neu5Ac(a2-3)Gal(b1-3)[Neu5Ac(a2-6)]GlcNAc(b1-3)[Fuc(a1-3)[Gal(b1-4)]GlcNAc(b1-6)]Gal(b1-4)Glc
In short: as §1

[10] = target: Neu5Ac(a2-3)Gal(b1-3)]Neu5Ac(a2-3)Gal(b1-4)]GlcNAc
In short: as §1

[11] = target: Neu5Ac(a2-3)Gal(b1-4)Glc
In short: as §1

[12] = target: Neu5Ac(a2-3)Gal(b1-4)GlcNAc
In short: as §1

[13] = target: Neu5Ac(a2-3)Gal(b1-4)GlcNAc(b1-2)Man
In short: as §1

[14] = target: Neu5Ac(a2-3)Gal(b1-4)GlcNAc(b1-2)Man(a1-3)[GlcNAc(b1-4)][Neu5Ac(a2-3)Gal(b1-4)GlcNAc(b1-2)Man(a1-6)]Man(b1-4)GlcNAc(b1-4)GlcNAc
In short: as §1

[15] = target: Neu5Ac(a2-3)Gal(b1-4)GlcNAc(b1-2)Man(a1-3)[Neu5Ac(a2-3)Gal(b1-4)GlcNAc(b1-2)Man(a1-6)]Man(b1-4)GlcNAc(b1-4)GlcNAc
In short: as §1

[16] = target: Neu5Ac(a2-3)Gal(b1-4)GlcNAc(b1-2)Man(a1-3)[Neu5Ac(a2-3)Gal(b1-4)GlcNAc(b1-2)Man(a1-6)]Man(b1-4)GlcNAc(b1-4)[Fuc(a1-6)]GlcNAc
In short: as §1

[17] = target: Neu5Ac(a2-3)Gal(b1-4)GlcNAc(b1-2)Man(a1-3)[Neu5Ac(a2-6)Gal(b1-4)GlcNAc(b1-2)Man(a1-6)]Man(b1-4)GlcNAc(b1-4)GlcNAc
In short: as §1

[18] = target: Neu5Ac(a2-3)Gal(b1-4)GlcNAc(b1-2)[Neu5Ac(a2-3)Gal(b1-4)GlcNAc(b1-4)]Man(a1-3)[GlcNAc(b1-4)][Neu5Ac(a2-3)Gal(b1-4)GlcNAc(b1-2)[Neu5Ac(a2-3)Gal(b1-4)GlcNAc(b1-6)]Man(a1-6)]Man(b1-4)GlcNAc(b1-4)GlcNAc
In short: as §1

[19] = target: Neu5Ac(a2-3)Gal(b1-4)GlcNAc(b1-2)[Neu5Ac(a2-3)Gal(b1-4)GlcNAc(b1-4)]Man(a1-3)[GlcNAc(b1-4)][Neu5Ac(a2-3)Gal(b1-4)GlcNAc(b1-4)Man(a1-6)]Man(b1-4)GlcNAc(b1-4)GlcNAc
In short: as §1

[20] = target: Neu5Ac(a2-3)Gal(b1-4)GlcNAc(b1-2)[Neu5Ac(a2-3)Gal(b1-4)GlcNAc(b1-6)]Man(a1-6)[Neu5Ac(a2-3)Gal(b1-4)GlcNAc(b1-2)Man(a1-3)]Man(b1-4)GlcNAc(b1-4)GlcNAc
In short: as §1

[21] = target: Neu5Ac(a2-3)Gal(b1-4)GlcNAc(b1-2)[Neu5Ac(a2-3)Gal(b1-4)GlcNAc(b1-6)]Man(a1-6)[Neu5Ac(a2-3)Gal(b1-4)GlcNAc(b1-2)Man(a1-3)][GlcNAc(b1-4)]Man(b1-4)GlcNAc(b1-4)GlcNAc
In short: as §1

[22] = target: Neu5Ac(a2-3)Gal(b1-4)GlcNAc(b1-3)Gal
In short: as §1

[23] = target: Neu5Ac(a2-3)Gal(b1-4)GlcNAc(b1-3)Gal(b1-3)GlcNAc
In short: as §1

[24] = target: Neu5Ac(a2-3)Gal(b1-4)GlcNAc(b1-3)Gal(b1-4)GlcNAc
In short: as §1

[25] = target: Neu5Ac(a2-3)Gal(b1-4)GlcNAc(b1-3)Gal(b1-4)GlcNAc(b1-2)Man(a1-3)[Neu5Ac(a2-3)Gal(b1-4)GlcNAc(b1-3)Gal(b1-4)GlcNAc(b1-2)Man(a1-6)]Man(b1-4)GlcNAc(b1-4)GlcNAc
In short: as §1

[26] = target: Neu5Ac(a2-3)Gal(b1-4)GlcNAc(b1-3)Gal(b1-4)GlcNAc(b1-3)Gal(b1-4)GlcNAc
In short: as §1

[27] = target: Neu5Ac(a2-3)Gal(b1-4)GlcNAc(b1-3)Gal(b1-4)GlcNAc(b1-3)Gal(b1-4)GlcNAc(b1-2)Man(a1-3)[Neu5Ac(a2-3)Gal(b1-4)GlcNAc(b1-3)Gal(b1-4)GlcNAc(b1-3)Gal(b1-4)GlcNAc(b1-2)Man(a1-6)]GalNAc
In short: as §1

[28] = target: Neu5Ac(a2-3)Gal(b1-4)GlcNAc(b1-3)Gal(b1-4)GlcNAc(b1-3)GalNAc
In short: as §1

[29] = target: Neu5Ac(a2-3)Gal(b1-4)GlcNAc(b1-3)Gal(b1-4)GlcNAc(b1-3)[Neu5Ac(a2-3)Gal(b1-4)GlcNAc(b1-3)Gal(b1-4)GlcNAc(b1-6)]GalNAc
In short: as §1

[30] = target: Neu5Ac(a2-3)Gal(b1-4)GlcNAc(b1-3)Gal(b1-4)GlcNAc(b1-6)[Gal(b1-3)]GalNAc
In short: as §1

[31] = target: Neu5Ac(a2-3)Gal(b1-4)GlcNAc(b1-3)Gal(b1-4)[Fuc(a1-3)]GlcNAc
In short: as §1

[32] = target: Neu5Ac(a2-3)Gal(b1-4)GlcNAc(b1-3)GalNAc
In short: as §1

[33] = target: Neu5Ac(a2-3)Gal(b1-4)GlcNAc(b1-3)[Neu5Ac(a2-3)Gal(b1-4)GlcNAc(b1-6)]GalNAc
In short: as §1

[34] = target: Neu5Ac(a2-3)Gal(b1-4)GlcNAc(b1-6)GalNAc
In short: as §1

[35] = target: Neu5Ac(a2-3)Gal(b1-4)GlcNAc(b1-6)[Gal(b1-3)]GalNAc
In short: as §1

[36] = target: Neu5Ac(a2-3)Gal(b1-4)GlcNAc(b1-6)[Neu5Ac(a2-3)Gal(b1-3)]GalNAc
In short: as §1

[37] = target: Neu5Ac(a2-3)Gal(b1-4)GlcNAc6S
In short: as §1

[38] = target: Neu5Ac(a2-3)Gal(b1-4)[Fuc(a1-3)]GlcNAc
In short: as §1

[39] = target: Neu5Ac(a2-3)Gal(b1-4)[Fuc(a1-3)]GlcNAc(b1-2)Man
In short: as §1

[40] = target: Neu5Ac(a2-3)Gal(b1-4)[Fuc(a1-3)]GlcNAc(b1-3)Gal
In short: as §1

[41] = target: Neu5Ac(a2-3)Gal(b1-4)[Fuc(a1-3)]GlcNAc(b1-3)Gal(b1-4)GlcNAc
In short: as §1

[42] = target: Neu5Ac(a2-3)Gal(b1-4)[Fuc(a1-3)]GlcNAc(b1-3)Gal(b1-4)[Fuc(a1-3)]GlcNAc(b1-3)Gal(b1-4)[Fuc(a1-3)]GlcNAc
In short: as §1

B1: WGA (Triticum vulgare) (protein)
chain: QRCGEQGSNMECPNNLCCSQYGYCGMGGDYCGKGCQNGACWTSKRCGSQAGGATCPNNHCCSQYGHCGFGAEYCGAGCQGGPCRADIKCGSQSGGKLCPNNLCCSQWGFCGLGSEFCGGGCQSGACSTDKPCGKDAGGRVCTNNYCCSKWGSCGIGPGYCGAGCQSGGCDAVFAGAITANSTLLAE
Question: Which “glycan array binding signal (z-score)” value [1] does the source give for B1 here?
Answer: The value was -0.351.

Question: And the “glycan array binding signal (z-score)” value [2]?
Answer: The value was -0.264.

Question: And the “glycan array binding signal (z-score)” value [3]?
Answer: Its value is -0.283.

Question: What about the “glycan array binding signal (z-score)” value [4] of the same binder?
Answer: The value was -0.333.

Question: What about the “glycan array binding signal (z-score)” value [5] of the same binder?
Answer: The value was -0.062.

Question: And the “glycan array binding signal (z-score)” value [6]?
Answer: The value was -0.465.

Question: What about the “glycan array binding signal (z-score)” value [7] of the same binder?
Answer: The value was 0.726.

Question: And the “glycan array binding signal (z-score)” value [8]?
Answer: Its value is -0.277.

Question: What about the “glycan array binding signal (z-score)” value [9] of the same binder?
Answer: The value was -0.281.

Question: What about the “glycan array binding signal (z-score)” value [10] of the same binder?
Answer: Its value is -0.291.

Question: What about the “glycan array binding signal (z-score)” value [11] of the same binder?
Answer: The value was -0.342.

Question: And the “glycan array binding signal (z-score)” value [12]?
Answer: Its value is 0.161.

Question: What about the “glycan array binding signal (z-score)” value [13] of the same binder?
Answer: Its value is -0.304.

Question: What about the “glycan array binding signal (z-score)” value [14] of the same binder?
Answer: The value was 0.495.

Question: And the “glycan array binding signal (z-score)” value [15]?
Answer: Its value is 0.446.

Question: What about the “glycan array binding signal (z-score)” value [16] of the same binder?
Answer: Its value is 0.221.

Question: What about the “glycan array binding signal (z-score)” value [17] of the same binder?
Answer: The value was -0.094.

Question: And the “glycan array binding signal (z-score)” value [18]?
Answer: The value was -0.105.

Question: What about the “glycan array binding signal (z-score)” value [19] of the same binder?
Answer: Its value is -0.095.

Question: And the “glycan array binding signal (z-score)” value [20]?
Answer: Its value is -0.066.

Question: And the “glycan array binding signal (z-score)” value [21]?
Answer: Its value is 0.576.

Question: What about the “glycan array binding signal (z-score)” value [22] of the same binder?
Answer: The value was -0.334.

Question: And the “glycan array binding signal (z-score)” value [23]?
Answer: Its value is -0.332.

Question: And the “glycan array binding signal (z-score)” value [24]?
Answer: The value was 0.317.

Question: And the “glycan array binding signal (z-score)” value [25]?
Answer: The value was 0.444.

Question: What about the “glycan array binding signal (z-score)” value [26] of the same binder?
Answer: The value was 1.06.

Question: What about the “glycan array binding signal (z-score)” value [27] of the same binder?
Answer: The value was 0.307.

Question: What about the “glycan array binding signal (z-score)” value [28] of the same binder?
Answer: The value was -0.353.

Question: And the “glycan array binding signal (z-score)” value [29]?
Answer: Its value is -0.001.

Question: And the “glycan array binding signal (z-score)” value [30]?
Answer: Its value is -0.149.

Question: What about the “glycan array binding signal (z-score)” value [31] of the same binder?
Answer: Its value is -0.372.

Question: And the “glycan array binding signal (z-score)” value [32]?
Answer: Its value is -0.376.

Question: And the “glycan array binding signal (z-score)” value [33]?
Answer: The value was -0.318.

Question: What about the “glycan array binding signal (z-score)” value [34] of the same binder?
Answer: Its value is -0.274.

Question: And the “glycan array binding signal (z-score)” value [35]?
Answer: The value was -0.357.

Question: What about the “glycan array binding signal (z-score)” value [36] of the same binder?
Answer: The value was -0.151.

Question: What about the “glycan array binding signal (z-score)” value [37] of the same binder?
Answer: Its value is 0.05.

Question: And the “glycan array binding signal (z-score)” value [38]?
Answer: The value was -0.282.

Question: And the “glycan array binding signal (z-score)” value [39]?
Answer: The value was -0.349.

Question: And the “glycan array binding signal (z-score)” value [40]?
Answer: Its value is -0.355.

Question: And the “glycan array binding signal (z-score)” value [41]?
Answer: The value was 0.06.

Question: And the “glycan array binding signal (z-score)” value [42]?
Answer: The value was -0.293.
